Experimental data from publication PMC12136788.
This is one part of the list.

T1: UNK ZnF1-3 (human, UniProt Q9C0B0 31-174)
T1 sequence: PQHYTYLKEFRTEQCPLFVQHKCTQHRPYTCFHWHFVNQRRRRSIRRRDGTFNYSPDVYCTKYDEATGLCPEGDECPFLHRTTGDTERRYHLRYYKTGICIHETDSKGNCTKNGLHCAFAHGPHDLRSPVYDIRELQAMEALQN

B1: chr17:65336665:65336666:-_ENSG00000197170_ENST00000356126|hu_hu|FALSE|FALSE (ssRNA)
RNA: GGGAGUUCUACAGUCCGACGAUCUAUAUACUGCUUUUAUUAUUGGAAUAUGUUUGUUAGUUGAAUGAAAACAAACAGUAGCUAAAAAGGUUUCAAAUGAUAGAAAAACAUAUCUGGGUAAGUUAUGACACAACUUUUUGUGUACAACAGAGGAUUGAGCAUCA
B2: 98545922_98546267_3831_CDS_ENSG00000196367_ENST00000456197|human|control|control (ssRNA)
RNA: GGGAGUUCUACAGUCCGACGAUCCCAUCAUGAACAGCUCCACUGUCUGCGAGGGAUGUCGAGUCAGGAACUUGAUCAGGGGCUCUCGGAAUGGACUCCCCGCCUCGAUCAGCAUCGCCCGCUCCGUUUUCAUGACAACCUCUACAACAGAGGAUUGAGCAUCA
B3: chrX:140365796:140365797:-_ENSMUSG00000031285_ENSMUST00000033642|mus_mus|mus_mus_mus_hu_False|38_108 (ssRNA)
RNA: GGGAGUUCUACAGUCCGACGAUCCUUCUCAUUACUUAGUGCCUGCAAGGUUCUGGUUCGGUAGAAGCUACAGUGGGCGCUGUGAGUGGGGCUAGGCAGUCCAUUCAUCCGGGAGCCUCGCAUGUUCCUGGAUGUCUUAUCUCUCAACAGAGGAUUGAGCAUCA
B4: chr7:34927866:34927867:-_ENSMUSG00000052997_ENSMUST00000102746|mus_mus|motif|central (ssRNA)
RNA: GGGAGUUCUACAGUCCGACGAUCGCUUUUGGCAGCAUCUUCAGCUUGUUUUGGCCCCACUUUUUCAGGGCUGUCACCAACGGCUUCAAAUUCAACAUCCUUUCCAAGAUCUUCACUAUGAAGAAUGUUGAUCAGCAAAGUAUACAACAGAGGAUUGAGCAUCA
B5: chr1:120316390:120316391:+_ENSMUSG00000064302_ENSMUST00000049404|mus_mus|motif|central (ssRNA)
RNA: GGGAGUUCUACAGUCCGACGAUCCAACAGGGUCUGGUCGUGCUCAAGGUCAGCAGACUUCUGUCUGUCUGAGAAAUAGUCGGUGAGUUCCUGGCCAACCUGCAGCCGCUUUCCCACAUCCUUCUGCAGCACCUGGGCCAGACACAACAGAGGAUUGAGCAUCA
B6: 118844846_118850702_1537_CDS_ENSG00000133835_ENST00000256216|human|control|control (ssRNA)
RNA: GGGAGUUCUACAGUCCGACGAUCAGGUCUAUUAGGUAUGGCUACAGCUACCUUGACUUUGUCUGAUGUCCGUUUUCCACCAAAGCCUCCAGAGCCAACAAGAAAGAGAGAGAACUGAUUGUGGCAUAUAAGUUCCUUCUCAGACAACAGAGGAUUGAGCAUCA
B7: chr1:137302511:137302512:-_ENSMUSG00000041879_ENSMUST00000161189|perfect_dup|FALSE|FALSE (ssRNA)
RNA: GGGAGUUCUACAGUCCGACGAUCCUUAACAGUGCUUUUGAAUUUGCUAUUUUCUAGUAGAGCAUGGACAAAUUCAAAAAUGCUAAAGACGAGAUUUUCAAAGCCCAGGACUUCACCAUCAGAAUCCACAGGAUCUUCUACUUCCAACAGAGGAUUGAGCAUCA
B8: chr11:102546300:102546301:-_ENSMUSG00000020925_ENSMUST00000092569|mus_hu|FALSE|FALSE (ssRNA)
RNA: GGGAGUUCUACAGUCCGACGAUCUGGGCCAAAUUCGGCCCGUGGGCAGUAGUUUGCCAACCCCUGGUAUAAAAUAUCUACUUUGUCUUGUCAGAGAAAUUGCUGUCCUUAGGCUUCUAGACAAUCUGCUGCCUGAAGUCAAGUCAACAGAGGAUUGAGCAUCA
B9: chr19:53703180:53703181:+_ENSMUSG00000024974_ENSMUST00000025930|mus_mus|motif|central (ssRNA)
RNA: GGGAGUUCUACAGUCCGACGAUCAUUUUGAACAUGCUGGUUUAUACCUUUUCGCCGAAAAUGUUCUAGCACUUUGUUAAUGCGGUCGGUUCCAUUUAAAAUGGCCUUUCCUGUUGCCGCUCUAAGAAGUUGCUGCUUCUUCUCCAACAGAGGAUUGAGCAUCA
B10: chr16:50257146:50257147:+_ENSG00000121274_ENST00000436909|hu_hu|motif|central (ssRNA)
RNA: GGGAGUUCUACAGUCCGACGAUCUAUCCGGAUGCCAGUCUUUAAAUAAUUGAAGUGUCGUCCAUAUAAUUCAAAAAAUUCGGUUAAGAGAACACCAUAGUUUGUAUUGGGGAUGCAAGCAUCUUCCCUGGGAUGUAACUGAAGCAACAGAGGAUUGAGCAUCA
B11: chr12:16048344:16048345:+_ENSG00000023734_ENST00000419869|hu_hu|hu_hu_hu_mus_True|68_68 (ssRNA)
RNA: GGGAGUUCUACAGUCCGACGAUCAGAUCGUCCAUAAGUAAUAACCAAAAUCUCUCCUUCAGGAAUAUAUUCCAUACUGCUAACAGACAUAUUAAAAUUCAGAGAUUUCACUUCUGUCAUUGUGGCAUGAUCCCAGAGCCGAACCAACAGAGGAUUGAGCAUCA
B12: 8778146_8778266_78_3pUTR_ENSMUSG00000020592_ENSMUST00000020911|mouse|control|control (ssRNA)
RNA: GGGAGUUCUACAGUCCGACGAUCACUGCCAGGUCCCUUCCUCUGCGUUAGGCUCUGUCUCCUCUGGCCCGCACCUCUCCCGCGGAGCUCCGCCUUAUAAUAAACCCAAAGGCUCUGCAGUUGCAAAACUAGCCGCCCACCCCCCAACAGAGGAUUGAGCAUCA
B13: 97395070_97395776_2053_CDS_ENSMUSG00000038453_ENSMUST00000107596|mouse|control|control (ssRNA)
RNA: GGGAGUUCUACAGUCCGACGAUCGGUCUCCGGCUCUGAGCCUCGCAGUAGGGCACUCUGUACUAGGCCAGUGAGGCUGGCAAUCUGCUUCUCCAUAGCCUCCAUGCGUUCCCUGGUCUCUGUGUCUUUGGCUGGCACCGGCGGCAACAGAGGAUUGAGCAUCA
B14: chr20:33096620:33096621:+_ENSG00000078747_ENST00000374864|hu_mus|FALSE|FALSE (ssRNA)
RNA: GGGAGUUCUACAGUCCGACGAUCCAACUUGAAUAGUUUAGCAAAAAUGAAAUGUAACUAAGGUGUUGGAUUACUUCAACACCAUAAAGCUUCAAUUUAUGUGUAGGAUUUAAAAAAAUCAAGAAUGAUCUUAGAUGAAUUCAUCAACAGAGGAUUGAGCAUCA
B15: chr14:76907486:76907487:+_ENSMUSG00000022010_ENSMUST00000022587|mus_hu|motif|central (ssRNA)
RNA: GGGAGUUCUACAGUCCGACGAUCAGUGACACCUUACAAUUGUGUAGAGAACAUGCACAGAAACAUAUGCAUAUAACGGCGGUACAGGUGAUAUGCAGAAACCCCUACUGGGAAAUCCAUUUCAUUAGUUAGAACUGAGCAUUUCAACAGAGGAUUGAGCAUCA
B16: chr5:125368827:125368828:+_ENSMUSG00000079215_ENSMUST00000111417|mus_mus|motif|central (ssRNA)
RNA: GGGAGUUCUACAGUCCGACGAUCUAGCUUCAAAAGUGUUAGUUGUAUUCCCCAGCAACCGCAUGAUAAAAUAAUUCAACGGUGUAGAAAUAUAGAACUCUAGGACUAGCUGGAAACUGGGCAAUCAUUUAGUCCAGUGUCCUCCAACAGAGGAUUGAGCAUCA
B17: chr15:39702511:39702512:-_ENSMUSG00000022305_ENSMUST00000022916|mus_hu|FALSE|FALSE (ssRNA)
RNA: GGGAGUUCUACAGUCCGACGAUCCUUAAUUUUCUUUUGAGAGUGUAGCAUGAUCCCCCCCAGGAAUAAAAUAUAUUGAAAAAAUCACUCUUACAACAAUGUAUUUUUUAAAUACAACAAAUAAAUAUGAAACCAGCAAAGCAACAACAGAGGAUUGAGCAUCA
B18: 135086505_135086625_324_3pUTR_ENSMUSG00000028165_ENSMUST00000029815|mouse|control|control (ssRNA)
RNA: GGGAGUUCUACAGUCCGACGAUCCUGUCCUCGGCUCGGCUGCGGGGGUGGGCGUCCGCUUUCGACCCUUGACGUCUGCGGAAGCGGGUGGCCGGGUUUUGAAAGAAACCCAAAGUUACCCACUGAUUGUUUUUUCCUCCGCAACAACAGAGGAUUGAGCAUCA
B19: 21608975_21614024_810_CDS_ENSG00000121350_ENST00000240651|human|control|control (ssRNA)
RNA: GGGAGUUCUACAGUCCGACGAUCAAACUCAUCCUGAAGGUAGAUUUUCUUUACUUCACACAUAGUUUCAAGGUGAAUCUUAUGAGAAAACUCUUUUGUUCCUUUAAGAUUCAAGCCUUCAUGCCAAUCUGGUCCCAAUGCACUCAACAGAGGAUUGAGCAUCA
B20: chr6:99998177:99998178:-_ENSG00000112237_ENST00000369220|hu_mus|motif|central (ssRNA)
RNA: GGGAGUUCUACAGUCCGACGAUCAAGGGGAAGCAGCACGUCUUCCUGGCCCAUGUCCUGCACAUACUGGAGCAAAGGUCGGUAAGGAUGAUACACUAUCAAGCAACAGUCCAUUAAUUCUAAGAGGUAAAAUUCACAUUCUAGCAACAGAGGAUUGAGCAUCA
B21: chr9:80412558:80412559:-_ENSG00000156052_ENST00000286548|hu_mus|motif|central (ssRNA)
RNA: GGGAGUUCUACAGUCCGACGAUCAGUGGGGACUCGAACUCUAAGCACGUCUUGUUGUGUAGGCAGAUAGGAAGGGUCGGCGGCACGGUCCAAGUCAUUCAGAUAGUAUUUGGUAGAGUCAGAUAACUGAUAUUCCCGUCGUCUCAACAGAGGAUUGAGCAUCA
B22: chr20:44444512:44444513:+_ENSG00000175063_ENST00000356455|hu_hu|FALSE|FALSE (ssRNA)
RNA: GGGAGUUCUACAGUCCGACGAUCCAGGUACUUCUUAAAAGCUGUGGGGUUUUUCCAGAGCUCGGCAGCAUGUGUGUUCAAGGGACUAUCAAUGUUGGGUUCUCCUAGAAGGCUCUGGAUGGAGAGCAGAAUGGUCCUGACAUCCAACAGAGGAUUGAGCAUCA

The binders below were run against T1, UNK ZnF1-3 (assay: nsRBNS (natural sequence RNA bind-n-seq); RBNS binding buffer (assumed for nsRBNS): 25 mM Tris pH 7.5, 150 mM KCl, 3 mM MgCl2, 0.01% Triton X-100, 500 ug/ml BSA, 20 U/ml SUPERase-In, 4 C; UNK is unkempt and MSI1 is Musashi-1; names of the RNAs are library labels; protein concentration not given here; high values mean tight binding).

| Binder | binding signal |
| --- | --- |
| B1 | 1.1 enrichment R |
| B2 | 0.746 enrichment R |
| B3 | 0.564 enrichment R |
| B4 | 0.712 enrichment R |
| B5 | 1.13 enrichment R |
| B6 | 1.07 enrichment R |
| B7 | 1.01 enrichment R |
| B8 | 0.667 enrichment R |
| B9 | 0.256 enrichment R |
| B10 | 1.62 enrichment R |
| B11 | 1.25 enrichment R |
| B12 | 1.59 enrichment R |
| B13 | 0.533 enrichment R |
| B14 | 0.59 enrichment R |
| B15 | 1.69 enrichment R |
| B16 | 1.34 enrichment R |
| B17 | 3.05 enrichment R |
| B18 | 0.51 enrichment R |
| B19 | 0.678 enrichment R |
| B20 | 0.703 enrichment R |
| B21 | 0.768 enrichment R |
| B22 | 0.828 enrichment R |
